The text below walks through data of paper PMC12136788.

T1: UNK ZnF1-3 (human, UniProt Q9C0B0 31-174)
T1 sequence: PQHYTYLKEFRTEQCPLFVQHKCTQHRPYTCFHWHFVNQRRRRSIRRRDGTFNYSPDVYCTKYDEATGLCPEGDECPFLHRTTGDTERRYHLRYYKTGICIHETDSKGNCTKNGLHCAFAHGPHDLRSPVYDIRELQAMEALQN

B1: chr19:30213842:30213843:-_ENSMUSG00000024827_ENSMUST00000025778|mus_hu|FALSE|FALSE (ssRNA)
RNA: GGGAGUUCUACAGUCCGACGAUCAAUAUGCUCCAGCCCAUGGGAACCAUGGUAGAUUGCAAACAUGGCAGCCAUAUUCGCCAAGAGGGCCUGAGCUGUACAGAUGUUGCUGGUAGCCUUGUCUCUCCGAAUGUGUUGCUCCCUCAACAGAGGAUUGAGCAUCA
B2: chr5:100395146:100395147:-_ENSMUSG00000000568_ENSMUST00000112939|mus_hu|FALSE|FALSE (ssRNA)
RNA: GGGAGUUCUACAGUCCGACGAUCAGAAAGGCCACCAACAAAAAUUUUUUUAACCGGCUCUUUUGUUUUCAUGGCUUUGGCCCUUUUAGGAUCAAUCACCUUCCCAUUCAAUUUAUGUUCUUUUUGAUCCAUGACCUUAUCUACCAACAGAGGAUUGAGCAUCA
B3: 135203627_135203747_3480_CDS_ENSG00000107290_ENST00000224140|human|control|control (ssRNA)
RNA: GGGAGUUCUACAGUCCGACGAUCAUUUGUAGUAUUGGCUAUAGGAGCCAAACAUUUUUUCUCACCAUCUUGAACUGAAUUAUUAUCGUCUGGAUGAUCUUGCCAAACUGAAAACACUUCAGAUGAACUUUCAAACUCAAAACACAACAGAGGAUUGAGCAUCA
B4: chr10:70028019:70028020:-_ENSMUSG00000037747_ENSMUST00000162251|mus_hu|motif|central (ssRNA)
RNA: GGGAGUUCUACAGUCCGACGAUCAGCCUUCUCCAACAAUUGUGUUAGAUGAACUUUUGAAUAGUCUGCGGUGCAGAAUUCGGUAAUUUCACUCCAUUCAGACACAACAUAAUCACCAUCAACUUGUUUUGAGGCAGUCUGCACCAACAGAGGAUUGAGCAUCA
B5: chr4:140556289:140556290:+_ENSMUSG00000036622_ENSMUST00000037055|mus_mus|mus_mus_mus_hu_False|88_88 (ssRNA)
RNA: GGGAGUUCUACAGUCCGACGAUCGAUGGAGCUCACCAGGCCCCCUUUGGCUGUGCAGAACCCUGUGCGGGUCACCACUGCCAGGACGUGCGGUCCCACAUAGGCCCGGGCCUGCAAGAUGAGGGUCCCGCAGAAGAGUGUGUGCAACAGAGGAUUGAGCAUCA
B6: chr7:54825262:54825263:-_ENSG00000132432_ENST00000352861|hu_hu|hu_hu_hu_mus_False|1_88 (ssRNA)
RNA: GGGAGUUCUACAGUCCGACGAUCCUGCCGGCUGGGCUCCACAAACUUUACCUGAUCAUCCAUGUUUGUUGGAUGGCGGAUUGAGAGCGUAGAGACACGUAGCUCAGGAGAGAACCGAGCCCAACGGAACCGGAAGCGGAAUCCCAACAGAGGAUUGAGCAUCA

The other results are listed elsewhere or left out.

The target in this test is T1, UNK ZnF1-3. Description: nsRBNS (natural sequence RNA bind-n-seq); RBNS binding buffer (assumed for nsRBNS): 25 mM Tris pH 7.5, 150 mM KCl, 3 mM MgCl2, 0.01% Triton X-100, 500 ug/ml BSA, 20 U/ml SUPERase-In, 4 C; UNK is unkempt and MSI1 is Musashi-1; names of the RNAs are library labels; protein concentration not given here; high values mean tight binding.
B1 came in with a binding signal of 1.3 enrichment R.
Then B2, with 1.27 enrichment R; and B3, with 0.778 enrichment R.
B4 showed a binding signal of 1.32 enrichment R.
The molecule B5 gave a binding signal of 1.17 enrichment R.
The molecule B6 yielded a binding signal of 0.926 enrichment R.
